This note sets out measurements from publication PMC10526831, “SUPPRESSOR OF MAX2 LIKE 6, 7, and 8 Interact with DDB1 BINDING WD REPEAT DOMAIN HYPERSENSITIVE TO ABA DEFICIENT 1 to Regulate the Drought Tolerance and Target SUCROSE NONFERMENTING 1 RELATED PROTEIN K”.

No constants are given. Whether binding was seen depends on the method and setting. Binding seen in cells or lysates may run through a third protein. Some binding calls cover weakened binding; strength is not graded here. Sequences can lack the tags named with a protein.

Common to all, as to test: split reporter; BiFC; nYFP and cYFP fusions co-infiltrated into N. benthamiana leaves; confocal microscopy of epidermal cells 2 days after infiltration
Assay [1] addresses T1, SMXL6-nYFP (Arabidopsis thaliana) (UniProt Q9LML2).
T1 sequence: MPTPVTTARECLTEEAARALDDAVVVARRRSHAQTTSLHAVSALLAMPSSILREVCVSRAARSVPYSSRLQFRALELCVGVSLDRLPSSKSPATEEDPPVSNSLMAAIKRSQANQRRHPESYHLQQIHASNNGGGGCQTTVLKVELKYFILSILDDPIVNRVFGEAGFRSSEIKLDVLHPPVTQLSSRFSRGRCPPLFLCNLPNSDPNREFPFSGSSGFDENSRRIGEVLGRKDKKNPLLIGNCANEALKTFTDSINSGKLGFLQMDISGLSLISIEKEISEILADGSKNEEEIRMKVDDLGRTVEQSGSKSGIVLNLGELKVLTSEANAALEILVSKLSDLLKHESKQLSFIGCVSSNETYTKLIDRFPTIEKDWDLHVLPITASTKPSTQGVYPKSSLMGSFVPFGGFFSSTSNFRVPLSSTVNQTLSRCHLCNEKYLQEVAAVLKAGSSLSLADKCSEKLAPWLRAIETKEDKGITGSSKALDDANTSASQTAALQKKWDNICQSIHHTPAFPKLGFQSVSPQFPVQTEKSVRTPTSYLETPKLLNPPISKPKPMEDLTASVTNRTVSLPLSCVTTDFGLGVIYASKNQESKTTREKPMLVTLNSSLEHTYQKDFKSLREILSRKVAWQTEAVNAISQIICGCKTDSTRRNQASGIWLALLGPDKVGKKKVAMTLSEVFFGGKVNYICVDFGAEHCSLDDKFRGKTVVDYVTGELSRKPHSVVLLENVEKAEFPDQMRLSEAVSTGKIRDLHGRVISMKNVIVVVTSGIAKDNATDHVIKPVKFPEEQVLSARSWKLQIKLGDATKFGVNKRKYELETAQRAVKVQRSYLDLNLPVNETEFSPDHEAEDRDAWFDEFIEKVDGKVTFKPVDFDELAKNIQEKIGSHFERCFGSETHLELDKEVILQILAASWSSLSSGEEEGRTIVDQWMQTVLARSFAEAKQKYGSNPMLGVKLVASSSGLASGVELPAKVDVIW

In assay [2] the target is T2, SMXL8-nYFP (Arabidopsis thaliana) (UniProt F4IGZ2).
T2 sequence: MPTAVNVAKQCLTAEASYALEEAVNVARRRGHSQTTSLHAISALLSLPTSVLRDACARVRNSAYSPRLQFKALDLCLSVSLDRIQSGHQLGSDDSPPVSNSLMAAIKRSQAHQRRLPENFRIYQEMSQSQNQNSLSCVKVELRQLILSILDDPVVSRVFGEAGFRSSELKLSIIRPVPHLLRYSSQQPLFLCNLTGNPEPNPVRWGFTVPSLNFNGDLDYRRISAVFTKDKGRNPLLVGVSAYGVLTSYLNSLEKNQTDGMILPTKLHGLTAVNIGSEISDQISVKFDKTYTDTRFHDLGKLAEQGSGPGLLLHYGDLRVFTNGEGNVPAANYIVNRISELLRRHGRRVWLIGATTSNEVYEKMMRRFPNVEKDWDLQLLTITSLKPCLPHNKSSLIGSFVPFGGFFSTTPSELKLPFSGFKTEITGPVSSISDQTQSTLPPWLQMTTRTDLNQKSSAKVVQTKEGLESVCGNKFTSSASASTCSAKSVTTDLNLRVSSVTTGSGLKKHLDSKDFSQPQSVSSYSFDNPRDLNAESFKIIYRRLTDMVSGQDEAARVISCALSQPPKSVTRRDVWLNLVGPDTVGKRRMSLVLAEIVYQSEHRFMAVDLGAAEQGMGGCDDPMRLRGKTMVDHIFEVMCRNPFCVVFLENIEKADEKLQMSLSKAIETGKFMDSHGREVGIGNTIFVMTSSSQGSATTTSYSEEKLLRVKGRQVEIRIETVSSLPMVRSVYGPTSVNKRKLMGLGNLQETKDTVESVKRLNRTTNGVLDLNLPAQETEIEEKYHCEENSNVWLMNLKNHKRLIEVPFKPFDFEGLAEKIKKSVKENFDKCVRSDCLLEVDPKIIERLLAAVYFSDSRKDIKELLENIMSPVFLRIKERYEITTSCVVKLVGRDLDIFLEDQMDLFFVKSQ

The target of assay [3] is T3, SMXL3-nYFP (Arabidopsis thaliana) (UniProt Q9SVD0).
T3 sequence: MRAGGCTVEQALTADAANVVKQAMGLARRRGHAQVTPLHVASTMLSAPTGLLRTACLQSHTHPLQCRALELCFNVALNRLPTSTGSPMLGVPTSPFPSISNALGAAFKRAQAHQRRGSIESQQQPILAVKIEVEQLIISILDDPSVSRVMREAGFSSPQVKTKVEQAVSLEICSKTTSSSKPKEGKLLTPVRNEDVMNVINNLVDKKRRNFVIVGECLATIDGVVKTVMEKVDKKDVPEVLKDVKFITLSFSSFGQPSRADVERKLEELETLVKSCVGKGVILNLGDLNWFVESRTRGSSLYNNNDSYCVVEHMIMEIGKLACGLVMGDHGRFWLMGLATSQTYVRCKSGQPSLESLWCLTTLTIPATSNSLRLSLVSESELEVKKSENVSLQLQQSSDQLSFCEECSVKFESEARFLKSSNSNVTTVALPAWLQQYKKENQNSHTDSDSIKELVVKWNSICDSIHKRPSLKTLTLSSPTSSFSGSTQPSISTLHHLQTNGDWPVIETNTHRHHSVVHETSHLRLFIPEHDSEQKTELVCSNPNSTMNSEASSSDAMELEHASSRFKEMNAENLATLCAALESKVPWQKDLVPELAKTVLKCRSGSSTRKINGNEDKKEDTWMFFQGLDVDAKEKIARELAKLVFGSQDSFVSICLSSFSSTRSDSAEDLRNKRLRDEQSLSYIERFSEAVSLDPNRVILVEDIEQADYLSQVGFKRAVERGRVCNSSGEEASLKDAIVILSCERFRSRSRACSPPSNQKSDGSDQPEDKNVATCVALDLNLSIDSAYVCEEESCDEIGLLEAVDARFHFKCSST

Assay [4] addresses T4, SMXL7-nYFP (Arabidopsis thaliana) (UniProt O80875).
T4 sequence: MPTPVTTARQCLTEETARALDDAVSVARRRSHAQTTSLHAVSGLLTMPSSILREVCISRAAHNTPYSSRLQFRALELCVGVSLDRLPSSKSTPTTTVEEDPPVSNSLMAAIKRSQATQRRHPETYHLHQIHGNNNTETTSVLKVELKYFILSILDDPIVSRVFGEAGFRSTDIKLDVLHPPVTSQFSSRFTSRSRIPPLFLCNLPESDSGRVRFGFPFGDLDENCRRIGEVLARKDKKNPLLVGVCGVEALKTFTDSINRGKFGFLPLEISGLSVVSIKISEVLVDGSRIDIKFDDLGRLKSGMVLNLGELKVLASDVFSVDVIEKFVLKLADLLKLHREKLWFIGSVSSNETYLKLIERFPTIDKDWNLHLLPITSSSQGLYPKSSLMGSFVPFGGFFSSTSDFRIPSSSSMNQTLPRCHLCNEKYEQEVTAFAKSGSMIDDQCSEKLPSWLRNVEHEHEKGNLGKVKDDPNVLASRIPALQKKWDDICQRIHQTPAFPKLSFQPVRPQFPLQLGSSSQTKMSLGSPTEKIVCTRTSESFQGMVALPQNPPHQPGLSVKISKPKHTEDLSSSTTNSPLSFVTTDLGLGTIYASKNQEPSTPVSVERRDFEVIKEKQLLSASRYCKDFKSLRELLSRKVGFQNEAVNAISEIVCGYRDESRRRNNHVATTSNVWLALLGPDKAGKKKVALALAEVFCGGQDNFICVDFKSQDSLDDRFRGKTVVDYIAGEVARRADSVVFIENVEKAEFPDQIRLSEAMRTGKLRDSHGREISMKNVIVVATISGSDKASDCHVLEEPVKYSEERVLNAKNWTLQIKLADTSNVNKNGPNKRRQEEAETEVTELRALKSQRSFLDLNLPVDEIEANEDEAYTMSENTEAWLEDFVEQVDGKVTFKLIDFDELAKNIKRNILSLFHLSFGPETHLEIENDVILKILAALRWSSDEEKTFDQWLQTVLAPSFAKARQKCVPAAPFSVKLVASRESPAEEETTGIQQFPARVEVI

B1: DWA1-cYFP (protein, UniProt Q8L4M1 1-367)
chain: MYGDATNWNEDEYRESILKEREIETRTVFRTAWAPPARISNPDAFVVASSDGTLAFHSLNSLVSQSASFGYSKGQDVMVAEPERVVRAHEGPAYDVKFYGEDEDALLLSCGDDGRVRGWKWREFAESDVSLHLKENHLKPLLELINPQHKGPWGALSPMPEINAMSVDPQSGSVFTAAGDSCAYCWDVESGKIKMTFKGHSDYLHTVVSRSSASQILTGSEDGTARIWDCKTGKCVKVIGSQDKKSRLRVSSMALDGSESWLVCGQGKNLALWNLPASECVQTIPIPAHVQDVMFDEKQILTVGAEPLLRRFDLNGALLSQIHCAPCSVFSISLHPAGVVAVGGYGGIVDVISQFGSHLCTFRSSSL
In the case of B1, the binding result in assay [1] is on record as “binds”; in assay [2], “binds”; in assay [3], “no binding”; in assay [4] it was “binds”.
